From patent US20140120555A1 (PIERRE FABRE MEDICAMENT, published 2014) come the findings set out here.

Assay [1] has as its target T1, chimeric antibody c515H7.
T1 construct: Human IgG1/kappa constant domains; also called c515H7 Mab; chimeric 515H7
The assay can be described thus: SPR (Biacore X): h-FcγRIIIA injected over c515H7 Mab immobilized on a CM4 sensorchip; Langmuir model. As to the method:
(§1) 2017 RU of c515H7 Mab were immobilized using the amine coupling kit chemistry on the second flowcell (FC2) of a CM4 sensorchip. The first flowcell (FC1) activated by NHS and EDC mixture and des-activated by ethanolamine served as the reference surface to check and subtract the non specific interaction between the analyte (Fc gamma receptors) and the sensorchip matrix.
(§2) The kinetic experiments were carried out at 25° Celsius at a flow rate of 30 μl/min. The HBS-EP buffer was used either as the running buffer or for the preparation of analyte solutions. The analyte solutions were injected during 90 seconds (association phase) with a 90 seconds delay (dissociation phase). An injection of running buffer as analyte was used as a double reference. All the sensorgrams were corrected by this double reference sensorgram.
(§3) After each injection of the analyte, the sensorchip was regenerated by injection of 20 mM NaOH, 75 mM NaCl solution.

Assay [2] addresses T2, humanized antibody Hz515H7 VH1 D76N VL2.
T2 construct: IgG1/kappa; also called hz515H7VL2; hz515H7-1
In words: SPR (Biacore X): h-FcγRIIIA injected over hz515H7VH1D76NVL2 Mab immobilized on a CM4 sensorchip; heterogeneous ligand model, major component (79%). As to the method:
(§4) 1964 RU of hz515H7VH1D76NVL2 Mab were immobilized using the amine coupling kit chemistry on the second flowcell (FC2) of a CM4 sensorchip. The first flowcell (FC1) activated by NHS and EDC mixture and des-activated by ethanolamine served as the reference surface to check and subtract the non specific interaction between the analyte (Fc gamma receptors) and the sensorchip matrix.
as §2
(§5) Sensorgrams obtained with h-FcγRIIIA [FIG. 16] were clearly not fitted by the Langmuïr model (Chi2/Rmax>20%). […] According to this model, the hz515H7VH1D76NVL2 Mab Fc domain may be regarded as a mixture of two components. […] According to the literature, the heterogeneity observed with h-FcγRIIIA was probably linked to the glycosylation heterogeneity on the Mab Fc domain.
For orientation: Surface plasmon resonance follows binding to a sensor surface in real time, without labels.

Assay [3] has as its target T1, chimeric antibody c515H7. In words: SPR (Biacore X): h-FcγRIIIA injected over c515H7 Mab immobilized on a CM4 sensorchip; heterogeneous ligand model, major component (81%). As to the method:
as §1, §2, §3

For assay [4], the target named is T2, humanized antibody Hz515H7 VH1 D76N VL2. In words: SPR (Biacore X): h-FcγRIIIA injected over hz515H7VH1D76NVL2 Mab immobilized on a CM4 sensorchip; Langmuir model. As to the method:
as §4, §2
After each injection of the analyte, the sensorchip was regenerated by injection of either 20 mM NaOH solution after h-FcγRI and m-FcγRIII or 10 mM NaOH after h-FcγRIIIA and m-FcγRI.

The target of assay [5] is T1, chimeric antibody c515H7. In words: SPR (Biacore X): h-FcγRIIIA injected over c515H7 Mab immobilized on a CM4 sensorchip; heterogeneous ligand model, minor component (19%). As to the method: as §1, §2, §3
T1 sequence (heavy, as listed by the source, chain 1 of 2): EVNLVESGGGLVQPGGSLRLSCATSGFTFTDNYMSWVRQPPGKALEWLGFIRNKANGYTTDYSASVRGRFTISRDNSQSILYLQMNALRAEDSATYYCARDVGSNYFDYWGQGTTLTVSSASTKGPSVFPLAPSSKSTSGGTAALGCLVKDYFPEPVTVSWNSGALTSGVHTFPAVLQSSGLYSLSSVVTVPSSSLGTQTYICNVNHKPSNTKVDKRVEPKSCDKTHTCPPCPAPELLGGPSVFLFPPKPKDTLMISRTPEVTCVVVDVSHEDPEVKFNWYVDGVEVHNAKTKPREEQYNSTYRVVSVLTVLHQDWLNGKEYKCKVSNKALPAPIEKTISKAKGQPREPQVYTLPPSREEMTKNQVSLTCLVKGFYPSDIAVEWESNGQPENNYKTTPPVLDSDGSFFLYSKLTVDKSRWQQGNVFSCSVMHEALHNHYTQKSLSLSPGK
T1 sequence (light, as listed by the source, chain 2 of 2): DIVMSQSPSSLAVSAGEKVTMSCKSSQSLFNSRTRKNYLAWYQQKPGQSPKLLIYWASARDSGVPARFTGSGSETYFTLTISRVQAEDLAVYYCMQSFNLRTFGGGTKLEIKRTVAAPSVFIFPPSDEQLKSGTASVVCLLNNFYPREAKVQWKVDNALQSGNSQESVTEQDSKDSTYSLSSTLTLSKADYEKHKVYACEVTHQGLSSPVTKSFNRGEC
Assay [6] deals with T2, humanized antibody Hz515H7 VH1 D76N VL2. In words: SPR (Biacore X): h-FcγRIIIA injected over hz515H7VH1D76NVL2 Mab immobilized on a CM4 sensorchip; heterogeneous ligand model, minor component (21%). The method, then:
as §4, §2, §5

T2 sequence (heavy, as listed by the source, chain 1 of 2): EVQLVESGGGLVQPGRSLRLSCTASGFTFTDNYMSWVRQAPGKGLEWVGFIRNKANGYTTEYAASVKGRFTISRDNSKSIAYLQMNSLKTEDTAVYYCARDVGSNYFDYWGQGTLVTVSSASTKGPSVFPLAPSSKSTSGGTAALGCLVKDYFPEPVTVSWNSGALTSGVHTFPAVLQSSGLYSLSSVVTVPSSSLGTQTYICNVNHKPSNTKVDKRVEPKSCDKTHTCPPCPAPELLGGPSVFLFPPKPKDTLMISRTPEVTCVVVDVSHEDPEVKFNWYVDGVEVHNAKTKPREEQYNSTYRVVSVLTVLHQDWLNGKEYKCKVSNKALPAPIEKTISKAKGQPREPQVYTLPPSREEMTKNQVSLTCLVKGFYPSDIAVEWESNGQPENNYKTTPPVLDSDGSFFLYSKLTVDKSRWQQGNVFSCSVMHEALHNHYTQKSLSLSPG
T2 sequence (light, as listed by the source, chain 2 of 2): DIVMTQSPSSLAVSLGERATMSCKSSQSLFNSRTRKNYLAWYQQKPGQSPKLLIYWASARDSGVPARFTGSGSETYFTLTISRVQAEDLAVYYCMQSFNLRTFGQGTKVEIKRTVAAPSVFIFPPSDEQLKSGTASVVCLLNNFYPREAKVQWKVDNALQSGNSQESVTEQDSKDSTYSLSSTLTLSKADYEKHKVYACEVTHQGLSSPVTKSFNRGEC

B1: Recombinant human FcγRIIIA variant V [CD16a], […] with C-terminal 6-His tag (receptor)
chain: not shown
notes: range […]; 'variant V' is given without a position, so no substitution is written; also called h-FcγRIIIA
As to B1, the t1/2 in the assay with chimeric antibody c515H7 [1] came to 26.4 s; in assay [2], 3.6 s; with chimeric antibody c515H7 [3], 3.6 s; in assay [4] it was 19.8 s; with chimeric antibody c515H7 [5] it was 55.8 s; in assay [6], 45 s.
